{"source": "patent US9074002B2", "about": "“PTP1B inhibitors” (Cold Spring Harbor Laboratory, priority 2009, dated 2015)", "molecules": {"B1": {"name": "scFv48: scFv, SEQ ID NO: 81 (protein)", "scFv": "MKKTAIAIAVALAGFATVAQAALTQPSSVSANPGETVKITCSEGGRSSYYGWYQQKAPGSAPVTVIYDSSSRPSDIPSRFSGSKSGSTGTLTITGVQAEDEAVYYCGSTDSSTSAAIFGAGTTLTVLGQSSRSSTVTLDESGGGLQTPGRALSLVCKASGFTFSSFNMGWVRQAPGKGLEYVASISSSGSYTAYGSAVKGRATISRDNGQSTVRLQLNNLRAEDTATYYCAKAAGSAYYYTAVTPAFAGSIDAWGHGTEVIVSSTSGQAGQHHHHHHGAYPYDVPDYAS"}}, "key": {"[1]": {"molecular_target": "T1, PTP1B-OX (Homo sapiens, UniProt P18031)", "T1 construct": "made in house; host or cells: E. coli BL21 (pET19b)", "T1 sequence (P18031 3-277)": "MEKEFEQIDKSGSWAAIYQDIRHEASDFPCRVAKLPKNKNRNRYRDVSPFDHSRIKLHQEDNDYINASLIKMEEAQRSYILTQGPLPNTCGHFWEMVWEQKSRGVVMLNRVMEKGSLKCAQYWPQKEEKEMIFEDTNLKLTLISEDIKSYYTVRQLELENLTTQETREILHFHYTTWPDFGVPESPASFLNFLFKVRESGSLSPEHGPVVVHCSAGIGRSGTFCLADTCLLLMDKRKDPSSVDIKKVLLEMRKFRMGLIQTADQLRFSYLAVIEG", "test": "In vitro binding assay, purified recombinant PTP1B (37 kDa) and purified scFv, Ni-NTA pull down", "settings": "purified proteins, scFv in molar excess, 2 hours at 4° C.; FIG. 9", "description": "(§1) They established conditions in which PTP1B is reversibly oxidized by H2O2 in solution (FIG. 8). An artificial protein substrate RCML, in which tyrosine was phosphorylated with ^32P using recombinant GST-FER kinase was used in this assay to measure the phosphatase activity. Recombinant PTP (37 kDa) was incubated with increasing concentration (50 μM to 100 mM) of H2O2. A quick buffer exchange was done to remove the H2O2 and reducing agent (TCEP) was added to reactivate the enzyme.\n(§2) In the in vitro binding assay, purified PTP was reversibly oxidized with […] followed by a quick buffer exchange to remove H2O2 (FIG. 8). Purified scFv was incubated in molar excess with PTP1B-OX or with PTP under reducing condition (with 2 mM TCEP) in binding buffer (20 mM HEPES, pH 7.4, 300 mM NaCl, 0.05% BSA, 0.05% Tween-20 and 10 mM imidazole) for 2 hours at 4° C. Ni-NTA agarose was added and incubated for one hour at 4° C. Protein complex bound to Ni-NTA agarose beads was pulled down and washed (three times, 5 minutes each, at 4° C.) with binding buffer containing 20 mM imidazole to reduce non-specific binding to the beads. […] The complex was separated by SDS-PAGE and PTP1B was detected with anti-PTP1B antibody (FG6) and scFv was detected with anti-HA antibody [anti-HA (3F10)-HRP, Roche] by immunoblotting. […]"}, "[2]": {"molecular_target": "T2, PTP1B under reducing condition (Homo sapiens, UniProt P18031)", "T2 construct": "made in house; host or cells: E. coli BL21 (pET19b)", "T2 sequence (P18031 3-277 limits assumed)": "T1 sequence (P18031 3-277)", "test": "In vitro binding assay, purified recombinant PTP1B (37 kDa) and purified scFv, Ni-NTA pull down, reducing condition", "settings": "with 2 mM TCEP; FIG. 9", "description": "as §1, §2"}}}
{"molecule": "B1", "values": [{"measurement": "binding to PTP1B-OX in vitro", "setting": "[1]", "result": "no significant binding"}, {"measurement": "binding to PTP1B under reducing condition in vitro", "setting": "[2]", "result": "no significant binding"}]}
